Data reported in PubChem BioAssay AID256 (DTP/NCI, 2004).
Inconclusive results and toxic doses are left out. The calls were made as follows: active = survival T/C of 150% or more; inactive = T/C below 125% in these data.

System: CD2F1 mice, L1210 leukemia ip, survival T/C
Assay: NCI In Vivo Anticancer Drug Screen. Data for tumor model L1210 Leukemia (intraperitoneal) in CD2F1 (CDF1) mice
Conditions: endpoint: mean survival time, schedule: Q04DX002 (ip), vehicle: saline with Tween-80, higher = longer survival
Procedure, shortened: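 Compound-dosed mice with transplantable tumor versus matched vehicle controls; endpoint ratio T/C reported.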

Measured: T/C

O=C(/C=C/c1ccccc1)Nc1ccc(F)cc1
inactive: dose: 100.0 mg/kg/injection 96 % of control | dose: 200.0 mg/kg/injection 96 % of control | dose: 400.0 mg/kg/injection 96 % of control

O=C(/C=C/c1ccccc1)Nc1ccccc1F
inactive: dose: 100.0 mg/kg/injection 100 % of control | dose: 200.0 mg/kg/injection 100 % of control | dose: 400.0 mg/kg/injection 96 % of control
